Source: PubChem BioAssay AID463173 (ICCB-Longwood Screening Facility, Harvard Medical School, 2010)
In all, about 52,000 compounds went through this assay and about 1,700 (3.3%) were called active. Cut-off read from the data, not from the text of the source: active = survival mostly below about 52% (no sharp cut-off); inactive = mostly above about 56%. The list shows a part of the results.

These compounds were tested on Wild type (assay: growth inhibition of S. aureus wild type versus tarO mutant, primary screen, teichoic acid synthesis inhibitors, RN4220, OD600 (AID 463173)). Conditions: S. aureus RN4220 wild type/DeltatarO growth, OD600, 18 h, hits give low values, screened at 18.75 µg/mL (by protocol).
In the case of `CCCCCC1CC(CC(=O)Nc2nncs2)C(=O)O1` (stereo not given), the survival is reported as inactive: 116%.
`Cc1ccc(Cl)cc1NC(=O)CN1C(=O)C(C)(C)c2cc(S(=O)(=O)N3CCCCC3)ccc21` was tested, and the survival was active: 1%.
In the case of `CC(=O)c1cccc(NC(=O)c2cc3c(s2)-c2c(C)cccc2OC3)c1`, the survival is reported as inactive: 130%.
With `CCOC(=O)c1c(S(=O)(=O)NCC(=O)NCc2ccccc2)c(C)n(C)c1C` the survival was inactive: 87%.
For `O=C(Nc1cccnc1)C12CC3CC(CC(C3)C1)C2`, the survival was inactive: 98%.
`Cc1cccc(-c2nc3c4ccccc4nc(NCc4ccc(F)cc4)n3n2)c1` was tested, and the survival was inactive: 80%.
With `COc1cccc(OC(=O)CSc2nnc(-c3ccc4c(c3)OCO4)o2)c1` the survival was inactive: 78%.
For `O=c1[nH]c2sc3c(c2c(=O)n1-c1ccccc1)CCCC3`, the survival was inactive: 110%.
In the case of `CC(C)CCN(C(=O)Nc1ccc(Cl)c(Cl)c1)C(C)c1cccs1` (stereo not given), the survival is reported as inactive: 136%.
`CCOc1ccccc1NC(=O)C(C)N(c1ccccc1)S(C)(=O)=O` (stereo not given) was tested, and the survival was inactive: 90%.
With `COc1cc(/C=C/c2nc(C#N)c(N3CCC(C)CC3)o2)cc(OC)c1OC` the survival was inactive: 74%.
For `CCOC(=O)c1ccc(OC(=O)c2cn(-c3cccc(OC)c3)c(=O)c3ccccc23)cc1`, the survival was inactive: 58%.
In the case of `CCc1ccc2c(c1)NC(c1ccc(OC)cc1)=NC(c1ccncc1)=N2`, the survival is reported as inactive: 83%.
For `CSc1ncc(C(=O)N2CCN(c3cccc(C(F)(F)F)c3)CC2)c(C)n1`, the survival was inactive: 73%.
`COc1ccccc1OCC(=O)Nc1c(C(=O)c2ccc(F)cc2)oc2ccccc12` was tested, and the survival was inactive: 66%.
In the case of `Cc1ccc2c(c1)N(CCCC(=O)NCc1cccc(F)c1)C(=O)CO2`, the survival is reported as inactive: 136%.
In the case of `C/C=C/C(=O)Nc1ccc(Cl)c(Cl)c1`, the survival is reported as inactive: 108%.
`COc1ccc(NC(=O)C(NC(=O)/C=C\c2ccc3c(c2)OCO3)c2ccccc2)cc1` (stereo not given) was tested, and the survival was inactive: 77%.
In the case of `Cc1ccc(NC(=O)C2CCN(S(=O)(=O)c3cc(-c4noc(C)n4)ccc3C)CC2)c(C)c1`, the survival is reported as inactive: 159%.
In the case of `Cc1cc(NC(=O)c2ccc(NC(=O)C(C)C)cc2)no1`, the survival is reported as inactive: 128%.
In the case of `O=C(CSc1c2c(nc3cc(Cl)ccc13)CCCC2)NCc1ccccc1Cl`, the survival is reported as inactive: 104%.
For `COc1ccc(C2CC(=O)c3cc(-c4nc(-c5cccc([N+](=O)[O-])c5)cs4)c(=O)n(-c4ccc(OC)cc4)c3C2)cc1` (stereo not given), the survival was inactive: 72%.
In the case of `COc1ccc(C2N3CC4(C)CN2CC(c2ccccc2)(C3)C4=O)cc1OC` (stereo not given), the survival is reported as inactive: 89%.
With `O=C(NC1CCCC1)C(c1ccc(N2CCOCC2)cc1)N(Cc1ccco1)C(=O)c1ccco1` (stereo not given) the survival was inactive: 103%.
In the case of `CCCN(CCC)CCCNC(=O)c1cc2c(=O)[nH]c3ccccc3c2n1C`, the survival is reported as inactive: 77%.
`COc1cccc(-n2c(=O)c3sc4ccccc4c3n(CC(=O)Nc3ccccc3C)c2=O)c1` was tested, and the survival was inactive: 95%.
In the case of `COc1ccc(N2CCN(c3csc4ccccc4c3=O)CC2)cc1`, the survival is reported as inactive: 71%.
For `CCc1ccc(NC(=O)c2nn(-c3ccc(OC)cc3)c(=O)c3c2c2ccccc2n3C)cc1`, the survival was inactive: 92%.
`CCCCOc1ccc(Cn2c(=O)sc3ccccc32)cc1` was tested, and the survival was active: -4%.
For `CCc1ccc(Oc2c(C(F)(F)F)oc3c(CN4CCCC(C)C4)c(O)ccc3c2=O)cc1` (stereo not given), the survival was inactive: 72%.
For `Cc1c(C(=O)Nc2ccc(F)cc2F)sc2nc3n(c(=O)c12)N=C(c1ccccc1)CS3`, the survival was inactive: 68%.
For `CC(Sc1oc(-c2cccs2)nc1S(=O)(=O)c1ccccc1)c1ccccc1` (stereo not given), the survival was inactive: 38%.
For `Cn1nccc1C(=O)NCc1ccc2c(c1)CCN2C(=O)c1ccc(Cl)cc1`, the survival was inactive: 66%.
For `O=C1c2ccccc2-c2onc3c(NCCO)cc(NC4CCCCC4)c1c23`, the survival was inactive: 77%.
With `COc1ccc(C(CNC(=O)COc2cc(C)cc(C)c2)N2CCOCC2)cc1` (stereo not given) the survival was inactive: 69%.
In the case of `CCOC(=O)c1ccccc1NC(=O)CCc1nc(-c2ccc(C)cc2)no1`, the survival is reported as inactive: 27%.
With `CC(CNC(=O)CCS(=O)(=O)c1cc2c(cc1Cl)NC(=O)CO2)c1ccccc1` (stereo not given) the survival was inactive: 55%.
With `Cc1ccc(NC(=O)CSc2nc(=O)cc(N)n2CCc2ccccc2)cc1` the survival was inactive: 74%.
For `CCc1ccccc1NC(=O)C1CCCN(c2cnccn2)C1` (stereo not given), the survival was inactive: 92%.
`O=C(Nc1cccc(NC(=O)c2ccccc2Cl)c1)c1cccc(Br)c1` was tested, and the survival was inactive: 107%.
For `COc1cccc(C(=O)c2sc(Nc3ccc(F)c(Cl)c3)nc2N)c1`, the survival was inactive: 65%.
For `Cn1c(=O)c2sccc2n2c(CCC(=O)Nc3ccc(F)cc3)nnc12`, the survival was inactive: 67%.
For `Cc1cc(C)cc(NC(=O)C(=O)NCC(c2cccnc2)N2CCc3ccccc32)c1` (stereo not given), the survival was inactive: 76%.
`CCC1CCCCN1CCCNC(=O)c1ccc2c(c1)sc1nc(-c3ccc(F)cc3)cn12` (stereo not given) was tested, and the survival was active: 6%.
In the case of `CCOc1ccc(OCC)c(S(=O)(=O)N2CCC(C)CC2)c1`, the survival is reported as inactive: 102%.
For `COc1ccc(OC)c(-c2noc(N3CCN(c4cc(Cl)ccc4C)CC3)n2)c1`, the survival was inactive: 134%.
With `Cc1ccc(C)c(NC(=O)CSc2nnc(C)n3c2cc2occc23)c1` the survival was inactive: 83%.
With `COC(=O)c1ccc(Cl)cc1NC(=O)Nc1nnc(N(C)Cc2ccccc2)s1` the survival was inactive: 95%.
In the case of `COc1ccc(C2c3c(-c4ccccc4O)n[nH]c3C(=O)N2CCc2ccccc2)cc1` (stereo not given), the survival is reported as inactive: 38%.
In the case of `COc1ccccc1NC(=O)CN1CCN(CC(=O)Nc2ccc(F)c(F)c2)CC1`, the survival is reported as inactive: 134%.
`CCOC(=O)c1ccc(CN(Cc2ccc(Br)cc2)S(=O)(=O)c2cccc(C(F)(F)F)c2)cc1` was tested, and the survival was inactive: 72%.
With `COc1ccc2c(c1)c(=O)c(C(=O)c1ccc(C)cc1)cn2Cc1ccccc1F` the survival was inactive: 88%.
With `CCC(C(=O)OC)n1nnc2sc(-c3ccccc3)cc2c1=O` (stereo not given) the survival was inactive: 81%.
For `O=C(COc1ccccc1Cl)Nc1ccccc1OCc1cc(=O)n2ccccc2n1`, the survival was inactive: 69%.
For `Cc1ccc(N2C(=O)CS(=O)(=O)C23C(=O)N(Cc2ccccc2F)c2ccccc23)cc1Cl` (stereo not given), the survival was inactive: 83%.
For `CCCCN(CC)CCNc1ncnc2onc(-c3ccc(Cl)cc3)c12`, the survival was inactive: 82%.
`CCOC(=O)N1CCN(CCC(=O)Nc2cccc(Cl)c2C)CC1` was tested, and the survival was inactive: 115%.
With `O=C(CN1C(=O)C2CCCCN2c2ccc(C(=O)N3CCCC3)cc21)NCc1ccccc1F` (stereo not given) the survival was inactive: 73%.
With `CN(c1ccccc1)C(CNS(=O)(=O)c1ccccc1)c1ccccc1` (stereo not given) the survival was inactive: 89%.
With `COC(=O)c1sccc1S(=O)(=O)N(CC(=O)NCc1ccc(F)cc1)c1ccc(C)c(C)c1` the survival was inactive: 76%.
`Cc1cccc(NC(=O)NC2COc3ccccc3C2)c1C` (stereo not given) was tested, and the survival was inactive: 73%.
`Cc1ccc(CN(Cc2ccco2)C(=O)c2cccc(C)c2)cc1` was tested, and the survival was inactive: 98%.
In the case of `CNS(=O)(=O)c1cn(CC(=O)Nc2cccc(C(F)(F)F)c2)cc1S(=O)(=O)NC`, the survival is reported as inactive: 94%.
In the case of `COc1ccc(Cc2nnc(C(=O)NCCCN3CCN(c4ccccc4F)CC3)o2)cc1OC`, the survival is reported as inactive: 87%.
`CC(OC(=O)c1cc2sccc2n1C)C(=O)NCc1cccs1` (stereo not given) was tested, and the survival was inactive: 108%.
`CC(C)COc1ccc(Nc2ncnc3ccc(Br)cc23)cc1` was tested, and the survival was inactive: 79%.
With `CNS(=O)(=O)c1cn(CC(=O)N2CCN(c3ccc(C)cc3C)CC2)cc1S(=O)(=O)NC` the survival was inactive: 59%.
In the case of `O=C(O)CCC(=O)N1N=C(c2ccccc2)CC1c1ccc2nccnc2c1` (stereo not given), the survival is reported as inactive: 99%.
For `Cc1cc(S(=O)(=O)n2ccnc2C(C)C)cc([N+](=O)[O-])c1C`, the survival was inactive: 67%.
In the case of `CCCNc1ccc(-c2nc(-c3ccco3)no2)cc1[N+](=O)[O-]`, the survival is reported as inactive: 86%.
With `CCc1ccc(CNC(=O)C(CC)n2nc(C)c3c(C)n(-c4ccccc4)nc3c2=O)cc1` (stereo not given) the survival was inactive: 124%.
In the case of `CCOC(=O)c1[nH]c2ccccc2c1NC(=O)c1ccccc1OC`, the survival is reported as inactive: 61%.
`CN1CCN(C(=O)c2ccccc2C(=O)O)CC1` was tested, and the survival was inactive: 115%.
With `COc1ccc(CNc2nc(-c3ccco3)nn2C(=O)CC(C)C)cc1` the survival was inactive: 111%.
For `CCOC(=O)c1nc(Nc2ccc(Cl)cc2)c2c(C)noc2n1`, the survival was inactive: 74%.
With `CC(=O)Nc1ccc(S(=O)(=O)N2CCN(Cc3ccccc3Cl)CC2)cc1` the survival was inactive: 117%.
For `Cc1ccc(CCNC(=O)c2ccc(CNS(=O)(=O)c3ccc(C)cc3)cc2)cc1`, the survival was inactive: 70%.
With `Cc1ccc(Cl)cc1N1CCN(C(=O)c2cn(CC(C)C)c(=O)c3c2c2ccccc2n3C)CC1` the survival was inactive: 87%.
In the case of `CCCN1CCCc2cc(CN)ccc21`, the survival is reported as inactive: 115%.
For `O=C(c1cccs1)N1CCN(c2ccc(Cl)cc2)CC1`, the survival was inactive: 108%.
In the case of `O=C(Nc1cc(C(F)(F)F)ccc1Cl)c1ccc2c(c1)CCN2S(=O)(=O)c1ccccc1`, the survival is reported as inactive: 98%.
`COc1cc(OC)cc(-c2cc3nc(-c4ccccc4)cc(N4CCN(c5ccccc5)CC4)n3n2)c1` was tested, and the survival was inactive: 101%.
For `CCS(=O)(=O)N1CCCC(c2nc3c(nnn3Cc3ccc(C)cc3)c(=O)[nH]2)C1` (stereo not given), the survival was inactive: 101%.
For `CN(C(=O)CSc1nc(N)cc(=O)[nH]1)c1ccccc1`, the survival was inactive: 98%.
In the case of `Cc1cc(C)c(Cn2c(=O)n(-c3ccccc3Cl)c(=O)c3c(C)c(C(=O)N(C)C)sc32)c(C)c1`, the survival is reported as inactive: 75%.
`Cc1cn2c(=O)cc(COc3cccc(NC(=O)c4ccccc4Cl)c3)nc2s1` was tested, and the survival was inactive: 88%.
In the case of `COc1ccc(N2CCN(C(=O)c3ccc4c(c3)N(Cc3cc(C)ccc3C)C(=O)c3ccccc3S4=O)CC2)cc1` (stereo not given), the survival is reported as inactive: 86%.
With `COc1cccc(N2CC(NC(=O)C3CCCCC3)CC2=O)c1` (stereo not given) the survival was inactive: 148%.
In the case of `CC(=O)c1c(C)oc2ccc(NS(=O)(=O)c3ccc(C(C)C)cc3)cc12`, the survival is reported as inactive: 86%.
With `Cc1ccccc1C(=O)Nc1cccc(-c2cn3cccnc3n2)c1` the survival was inactive: 105%.
